We go through 2 molecules from patent US20190330372A1 (Novartis, published 2019).

Positions count from the first letter of the chain named. Several values for one entry are separate records, joined by “and”; a condition that tells them apart may be missing. Equal values may be shown once.

For orientation: IC50 means the concentration needed to halve the response being measured. One may read the Kd as the constant that tells how readily two partners part at equilibrium.

The target of assay [1] is T1, human plasma derived FXIa (human, UniProt P03951). In words: cell-based or functional assay.
Another assay deals with rabbit FXI (rabbit). The experiment in a line: direct ELISA, panel 'Rabbit FXI': antigen coated on the plate, IgG titrated, AP-anti-human F(ab)2 and AttoPhos fluorescence (RFU); half-maximal binding concentration of the fit, headed 'IC50' in the drawn table; unit taken from the axis 'Conc. [nM]'. How it is done: (§1) For direct coating ELISAs, antigens were immobilized on 384-well Maxisorp™ microtiter plates over night at 4° C. using the concentrations as shown in Table 5. After blocking with 5% skim milk powder in PBS (80 μl/well), 20 μl/well of Fab-containing E. coli lysates or purified antibodies at various concentrations (typically 12 points of a 1:3 titration starting at 200 nM IgG or Fab, respectively) were added to plates and incubated for 1 h at room temperature. […] Fluorescence emission at 535 nm was recorded with excitation at 430 nm. Multiple wash steps with PBS+0.05% Tween20 were performed in between individual assay steps.
(An ELISA detects its analyte on a solid surface through an enzyme-linked reagent.)

A further assay addresses cynomolgus monkey FXI (cynomolgus monkey). The experiment in a line: direct ELISA, panel 'Cynomolgus monkey FXI': antigen coated on the plate, IgG titrated, AP-anti-human F(ab)2 and AttoPhos fluorescence (RFU); half-maximal binding concentration of the fit, headed 'IC50' in the drawn table; unit taken from the axis 'Conc. [nM]'. Here is the method: as §1
Assay [2] has as its target T1, human plasma derived FXIa. In words: SET, full length IgG.
The target of assay [3] is T1, human plasma derived FXIa. In words: solution equilibrium titration (SET), IgG at 5 pM, 1:1 binding model. Here is the method:
Experiments were carried out in polypropylene microtiter plates and with PBS (GIBCO 14190, pH 7.0-7.2) containing 0.5% BSA and 0.02% Tween20 as assay buffer. Serial dilutions of unlabeled FXIa antigen were prepared, starting with a concentration at least 10 times higher than the expected KD. Wells without antigen were used to determine Bₘₐₓ values; wells containing only assay buffer were used to determine background. After addition of an appropriate amount of binder (antibody concentration similar to or below the expected KD, 60 μL final volume), the mixture was incubated over night at RT.
MSD plates were coated with 1 μg/mL human plasma derived FXIa (30 μL per well). After washing the plate with PBS containing 0.05% Tween 20, the equilibrated samples were transferred to the plates and incubated for 20 min. Following incubation, 30 μL per well of the MSD-Sulfo-tag labeled detection antibody (anti-Flag M2 (Sigma) 1:2,000) was added to the washed MSD plate and incubated for 30 min at RT on an Eppendorf shaker (700 rpm).
The SET method described in Example 2 was used to determine the KD for AM4 (IgG), and compared to NOV1401, the germlined version of its parental antibody NOV1090.

T1 sequence (P03951 19-625 C226S limits assumed): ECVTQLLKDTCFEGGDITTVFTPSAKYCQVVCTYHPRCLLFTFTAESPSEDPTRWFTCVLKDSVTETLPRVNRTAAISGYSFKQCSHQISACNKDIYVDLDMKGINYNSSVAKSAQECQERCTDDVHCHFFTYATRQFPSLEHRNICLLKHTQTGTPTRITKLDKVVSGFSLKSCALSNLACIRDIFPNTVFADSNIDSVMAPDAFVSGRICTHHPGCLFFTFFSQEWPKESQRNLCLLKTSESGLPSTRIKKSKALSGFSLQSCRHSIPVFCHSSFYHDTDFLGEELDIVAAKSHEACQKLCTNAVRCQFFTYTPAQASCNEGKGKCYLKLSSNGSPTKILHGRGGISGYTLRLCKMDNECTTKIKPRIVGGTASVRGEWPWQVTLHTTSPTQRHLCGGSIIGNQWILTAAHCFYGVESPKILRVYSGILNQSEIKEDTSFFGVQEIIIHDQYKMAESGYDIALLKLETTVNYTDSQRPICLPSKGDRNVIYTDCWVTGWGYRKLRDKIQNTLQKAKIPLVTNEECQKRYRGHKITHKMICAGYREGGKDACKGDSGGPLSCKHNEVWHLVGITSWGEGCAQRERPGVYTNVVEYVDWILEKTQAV
Sequence of cynomolgus monkey FXI (P03951 other isoform, or with tags, fused parts or gaps): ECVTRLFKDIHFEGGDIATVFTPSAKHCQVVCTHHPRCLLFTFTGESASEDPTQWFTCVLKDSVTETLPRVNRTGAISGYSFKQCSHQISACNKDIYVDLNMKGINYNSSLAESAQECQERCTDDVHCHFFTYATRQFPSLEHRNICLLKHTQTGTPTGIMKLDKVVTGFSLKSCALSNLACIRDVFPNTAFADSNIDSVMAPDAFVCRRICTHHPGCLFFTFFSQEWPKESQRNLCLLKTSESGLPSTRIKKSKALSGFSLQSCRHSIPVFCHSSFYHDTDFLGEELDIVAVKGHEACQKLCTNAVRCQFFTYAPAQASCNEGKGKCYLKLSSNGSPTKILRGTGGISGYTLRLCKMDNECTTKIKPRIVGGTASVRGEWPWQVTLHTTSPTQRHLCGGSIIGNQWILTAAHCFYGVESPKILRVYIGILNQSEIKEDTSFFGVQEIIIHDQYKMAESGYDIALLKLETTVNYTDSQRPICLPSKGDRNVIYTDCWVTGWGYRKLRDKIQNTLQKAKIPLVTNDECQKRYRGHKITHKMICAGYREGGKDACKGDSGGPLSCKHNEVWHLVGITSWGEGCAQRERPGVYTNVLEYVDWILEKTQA

B1: AM3 (IgG) (antibody)
heavy: QVQLLESGGGLVQPGGSLRLSCAASGFTFSTAAMSWVRQAPGKGLEWVSTIEYSSQETYYADSVKGRFTISRDNSKNTLYLQMNSLRAEDTAVYYCARELSYLYSGYYFDYWGQGTLVTVSSASTKGPSVFPLAPSSKSTSGGTAALGCLVKDYFPEPVTVSWNSGALTSGVHTFPAVLQSSGLYSLSSVVTVPSSSLGTQTYICNVNHKPSNTKVDKRV[skipping human IgG1 Fc with changes]
light: DIVLTQPPSVSGAPGQRVTISCSGSSSNIGSNDVSWYQQLPGTAPKLLIYKNYNRPSGVPDRFSGSKSGTSASLAITGLQAEDEADYYCSAWDQRQFDVVFGGGTKLTVLGQPKAAPSVTLFPPSSEELQANKATLVCLISDFYPGAVTVAWKADSSPVKAGVETTTPSKQSNNKYAASSYLSLTPEQWKSHRSYSCQVTHEGSTVEKTVAPTECS
Take B1: in assay [1], the “TGA IC50” value was 9000 pM; the “TGA Residual Thrombin [nM] (%)” value was 19.7% and 85.3 nM. Besides, the IC50 with rabbit FXI turned out to be 406 pM. This molecule gave an IC50 with cynomolgus monkey FXI of 449 pM.

B2: AM4 (IgG) (antibody)
heavy: QVQLLESGGGLVQPGGSLRLSCAASGFTFSTAAMSWVRQAPGKGLEWVSTIEYSSQETYYADSVKGRFTISRDNSKNTLYLQMNSLRAEDTAVYYCARELSYLYSGYYFDYWGQGTLVTVSSASTKGPSVFPLAPSSKSTSGGTAALGCLVKDYFPEPVTVSWNSGALTSGVHTFPAVLQSSGLYSLSSVVTVPSSSLGTQTYICNVNHKPSNTKVDKRV[skipping human IgG1 Fc with changes]
light: B1 light with D1Q, I2S
notes: Germlined version of AM3, with two amino acid changes at the N-terminus of the light chain
Consider B2, for which the “fold higher affinity than NOV1090” value in assay [2] was approximately 10 fold. Moreover, in assay [3], binding was characterised by a dissociation constant (Kd) of 0.22 pM.
